Results taken from US8362216B2, “Method of detection using antibodies that specifically bind hedgehog-derived polypeptides” (The Johns Hopkins University School of Medicine, priority 1994, dated 2013).

Test system: cell fates in the dorsal cuticle
Assay: Patterning of larval dorsal cuticle after heat shock
Conditions: heat shock induction of embryos

B1: hshh H329A: heat shock-inducible hh with H329A mutation blocking auto-proteolysis (protein)
chain: CGPGRGLGRHRARNLYPLVLKQTIPNLSEYTNSASGPLEGVIRRDSPKFKDLVPNYNRDILFRDEEGTGADRLMSKRCKEKLNVLAYSVMNEWPGIRLLVTESWDEDYHHGQESLHYEGRAVTIATSDRDQSKYGMLARLAVEAGFDWVSYVSRRHIYCSVKSDSSISSHVHGCFTPESTALLESGVRKPLGELSIGDRVLSMTANGQAVYSEVILFMDRNLEQMQNFVQLHTDGGAVLTVTPAALVSVWQPESQKLTFVFADRIEEKNQVLVRDVETGELRPQRVVKVGSVRSKGVVAPLTREGTIVVNSVAASCYAVINSQSLAHWGLAPMRLLSTLEAWLPAKEQLHSSPKVVSSAQQQNGIHWYANALYKVKDYVLPQSWRHD
Alteration of cell fates in the dorsal cuticle of the larva: unable to alter cell fates in the dorsal cuticle of the larva
